Test results as given in paper PMC4336329 (PLoS ONE, 2015).
Out of some 310,000 compounds screened, about 14,000 (4.5%) showed an effect of 50% or more. Effects have a minus sign here. The list shows a part of the results.

The molecules below were run against human ether-à-go-go-related gene (hERG) potassium channel (human, UniProt Q12809) (assay: primary screen, population patch clamp on CHO cells stably expressing hERG).
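Further: peak tail current of the secondary pulse compared with the same well before compound.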

Sequence of human ether-à-go-go-related gene (hERG) potassium channel (Q12809 whole entry, looked up): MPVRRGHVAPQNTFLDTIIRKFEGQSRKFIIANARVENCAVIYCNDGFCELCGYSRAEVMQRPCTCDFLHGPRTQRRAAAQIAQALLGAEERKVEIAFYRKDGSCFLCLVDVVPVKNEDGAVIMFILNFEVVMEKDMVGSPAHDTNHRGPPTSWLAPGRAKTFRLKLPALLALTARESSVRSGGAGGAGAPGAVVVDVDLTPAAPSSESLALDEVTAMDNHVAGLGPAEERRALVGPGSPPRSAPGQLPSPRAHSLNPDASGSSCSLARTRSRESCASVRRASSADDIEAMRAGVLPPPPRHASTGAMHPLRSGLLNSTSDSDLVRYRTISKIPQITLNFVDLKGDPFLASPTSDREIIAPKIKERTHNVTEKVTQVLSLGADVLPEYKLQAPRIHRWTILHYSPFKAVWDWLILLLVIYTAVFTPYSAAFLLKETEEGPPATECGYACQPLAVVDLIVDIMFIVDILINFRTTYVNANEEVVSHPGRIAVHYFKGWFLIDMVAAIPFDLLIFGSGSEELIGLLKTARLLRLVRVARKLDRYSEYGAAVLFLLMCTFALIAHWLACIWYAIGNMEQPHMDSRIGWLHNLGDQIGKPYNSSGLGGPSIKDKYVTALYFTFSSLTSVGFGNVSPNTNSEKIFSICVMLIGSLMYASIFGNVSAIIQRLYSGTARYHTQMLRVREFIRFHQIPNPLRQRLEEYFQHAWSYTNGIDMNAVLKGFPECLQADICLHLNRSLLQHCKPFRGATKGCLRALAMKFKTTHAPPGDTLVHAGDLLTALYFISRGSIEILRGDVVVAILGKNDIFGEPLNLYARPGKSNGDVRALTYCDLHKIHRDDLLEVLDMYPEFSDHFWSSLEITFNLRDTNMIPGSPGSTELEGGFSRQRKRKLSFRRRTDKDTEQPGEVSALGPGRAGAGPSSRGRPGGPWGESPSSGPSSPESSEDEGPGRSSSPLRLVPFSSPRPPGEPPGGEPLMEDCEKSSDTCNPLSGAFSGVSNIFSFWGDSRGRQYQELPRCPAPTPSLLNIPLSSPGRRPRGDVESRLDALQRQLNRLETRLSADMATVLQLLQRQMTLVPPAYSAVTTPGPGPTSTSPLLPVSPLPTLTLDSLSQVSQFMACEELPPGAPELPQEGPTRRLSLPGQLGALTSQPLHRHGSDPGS

In order of rising “hERG current change (%, negative = inhibition) at 10uM” value:
1. Cc1ccn2cc(-c3cccc(NC(=O)c4cccs4)c3)nc2c1  -48.7%
2. COc1ccnc(CS(=O)c2nc3cc(OC(F)F)ccc3[n-]2)c1OC.[Na+] (centres unmarked)  -45.1%
3. COc1ccc(-c2nc(CSCC(=O)N3CCN(C4CCCCC4)CC3)c(C)o2)cc1OC  -34.4%
4. Cn1c(SCc2nc3ccccc3[nH]2)nnc1-c1cccs1  -28.7%
5. CC1=Nc2ccc(Br)cc2C(c2ccccc2)N1CC(=O)NN (centres unmarked)  -26.3%
6. Br.N=c1n(CCN2CCCCC2)c2ccccc2n1CC(=O)c1cccs1  -25.2%
7. CN(CC(=O)NCc1ccncc1)S(=O)(=O)c1ccc2ccccc2c1  -22.9%
8. Cc1cccc(S(=O)(=O)N2CN(Cc3ccco3)c3nc4ccccc4nc32)c1  -16.7%
9. O=S(=O)(NCc1ccccc1F)c1cccc(S(=O)(=O)N2CCOCC2)c1  -14.6%
10. O=C(C1Cc2ccccc2CN1S(=O)(=O)c1ccc(F)cc1)N1CCCCC1 (centres unmarked)  -13.2%
11. CCOC(=O)Cn1nnnc1CN(Cc1ccccc1)Cc1cc2cc(CC)ccc2[nH]c1=O  -11.2%
12. COc1cc(-c2nnc(SCC3(c4ccc(Br)cc4)OCCO3)o2)cc(OC)c1OC  -9.92%
13. Cc1ccccc1-n1c(SCc2csc(Nc3ccccc3)n2)nnc1-c1cccnc1  -6.71%
14. Clc1cccc(Cl)c1Cn1cnc2c(N3CCCCCC3)ncnc21  -6.44%
15. CC1Oc2ccccc2N(CC(=O)c2ccccc2)C1=O (centres unmarked)  -5.02%
16. CC[C@@H]1[C@H]2CCCC(=O)N3CC[C@@H](C[C@@H]1Nc1ccccc1)[C@@H]23  -3.88%
17. COc1ccc(-n2ncc3c(=O)n(CC(=O)N4c5ccccc5CC4C)cnc32)cc1 (centres unmarked)  -1.43%
18. Cc1ccc(NC(=O)COC(=O)/C=C/c2ccc(Br)o2)cc1S(=O)(=O)N(C)C  -0.4%
19. Cc1c(OCc2ccc([N+](=O)[O-])cc2)ccc2c3c(c(=O)oc12)CCC3  0.652%
20. CCN(CC)S(=O)(=O)c1cccc(-c2n[nH]c(=S)n2/N=C/c2ccc(OC(F)F)cc2)c1  0.89%
21. COc1cccc(CC(=S)N2CCOCC2)c1  1%
22. CCNc1nc(-c2ccc(Cl)cc2)cs1  1.78%
23. Cc1nccc2c1[nH]c1ccccc12  2.16%
24. CCCN1CCN(C(=O)CN2C(=O)CC(C)(C)S(=O)(=O)c3ccccc32)CC1  2.55%
25. Cc1nc(N2CCN(S(=O)(=O)c3ccccc3C#N)CC2)c2c(-c3ccccc3)csc2n1  2.68%
26. Cc1cc(NC(=O)CSc2nc(=O)n3cc(Cl)ccc3n2)no1  2.75%
27. COc1ccc(C/C(C)=N/NC(=O)c2cc(C)oc2C)cc1  4.56%
28. CCCCC(=O)Nc1ccc(NC(=O)C2CC2)nc1  4.98%
29. CCCS(=O)(=O)C/C(N)=N/OC(=O)c1ccccc1Cl  5.28%
30. CCOC(=O)c1cccc(S(=O)(=O)N(CCO)Cc2cc3cc(OC)ccc3[nH]c2=O)c1  5.46%
31. C/C(Cc1ccccc1)=N\NC(=O)CNC(=O)COc1ccccc1  8.45%
32. O=C(Nc1ccccc1N1CCN(c2ccccc2)CC1)c1ccccc1  8.61%
33. C=CCSc1nnc(NC(=O)CSc2nc3ccccc3[nH]2)s1  9.74%
34. O=C(NCC1CCCO1)c1cccc(F)c1 (centres unmarked)  10.3%
35. O=C(O)CC(NC(=O)C(c1ccccc1)c1ccccc1)c1ccco1 (centres unmarked)  11.8%
36. Cc1nc(C(F)(F)F)nc(Nc2ccc(Br)cc2)c1C#N  12.2%
37. COC(=O)c1ccc(-c2ccc(/C=N/NC(=O)Cc3nnc(N)s3)o2)cc1  12.5%
38. C/C(=N\O)C1CC(CC(=O)O)C1(C)C (centres unmarked)  12.9%
39. O=C(Nc1cccnc1)c1scc2c1OCCO2  13.2%
40. CCCN(C(=O)C1CCN(S(=O)(=O)c2ccc(OC)c(OC)c2)CC1)C1CCS(=O)(=O)C1 (centres unmarked)  13.4%
41. Cc1noc(C)c1S(=O)(=O)N1CCCC(C(=O)NC2CCCCC2)C1 (centres unmarked)  13.5%
42. Cc1cccc2c(=O)c(C(=O)NCc3cccs3)c[nH]c12  14.7%
43. COc1ccc(F)cc1-c1nc(N)nc(N)n1  23.5%
44. NS(=O)(=O)c1ccc(NC(=O)CSc2nnc(-c3ccc(O)cc3)o2)cc1  25.1%
